{
  "source": "PubChem BioAssay AID588855",
  "about": "(National Center for Advancing Translational Sciences (NCATS), 2011)",
  "note": "The campaign covered roughly 410,000 compounds. About 5,000 (1.2%) were called active. This list was built around the results that the source calls inconclusive (neither active nor inactive); the mix of calls is not that of the screen. Calls come from the whole dose curve; as a rule, active = well fitted inhibition curve with a large enough effect; inconclusive = small, poorly fitted or top-dose-only effect; inactive = no such curve, though single readings can be large or run the other way. Potencies beside an inconclusive call are fits to weak or partial responses and may not hold up. % is set by controls: 0 for no effect and ±100 for the full control effect; potency is the fitted concentration of half-maximal effect; tags give direction and shape of the fitted curve.",
  "data": [
    {"assay": "qHTS for Inhibitors of TGF-b; note: nearly all actives have a fitted effect of over 65% in size", "conditions": "HepG2 CAGA-GFP TGF-b/SMAD3 reporter, GFP fluorescence, 18 h, TGF-beta stimulated, 500 pg/mL final; series mostly up to 46.1 µM; activity, negative = inhibition: at the top concentration", "outline": "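HEPG2 CAGA-GFP, 1000 cells/well; 2 h settle, 37 C; cpd via pin tool; TGF-b 500 pg/mL final; 18 h, 37 C; GFP imaging ex488/em500-530; %Activity normalised to -TGF-b and +DMSO controls; CRC fit, curve class.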", "values": [
      {"smiles": "O=C(COC(=O)CCCOc1ccc(Cl)cc1Cl)Nc1cccc(Cl)c1", "Potency": "inconclusive: 12.6 µM [inhibitor, single point]"},
      {"smiles": "S=C(NCc1ccco1)Nc1ccc(Oc2ccc(Cl)cc2)cc1", "Potency": "active: 15.8 µM"},
      {"smiles": "O=C(COc1ccccc1)Nc1ccccc1Cl", "activity, negative = inhibition": "inactive: 8.92%"},
      {"smiles": "COc1cc(C2CC(=O)c3cnc(NC(=O)COc4ccccc4)nc3C2)cc(OC)c1OC", "note": "(stereo not given)", "activity, negative = inhibition": "inactive: -1.88%"},
      {"smiles": "Cc1ccc2nc3c(c(Nc4ccccc4)c2c1)CCC3", "Potency": "active: 12.6 µM"},
      {"smiles": "CCCCOc1ccc(/C=C/C(=O)OCC(=O)NC(=O)NCC(C)C)cc1OCC", "Potency": "inconclusive: 11.2 µM [inhibitor, partial curve]"},
      {"smiles": "CN(C)CCC(=O)N1C/C(=C/c2ccccc2)C(=O)/C(=C\\c2ccccc2)C1", "Potency": "active: 2 µM"},
      {"smiles": "Cc1nn(-c2ccccc2)c(C)c1NC(=O)COc1ccc(F)cc1Cl", "activity, negative = inhibition": "inactive: -1.23%"},
      {"smiles": "COc1cccc(C(c2nnnn2-c2c(C)cccc2C)N2CCN(C/C=C/c3ccccc3)CC2)c1OC", "note": "(stereo not given)", "Potency": "inconclusive: 35.5 µM [inhibitor, single point]"},
      {"smiles": "Fc1ccccc1-c1nc(NCCCN2CCOCC2)c2ccccc2n1", "activity, negative = inhibition": "inactive: 5.18%"},
      {"smiles": "OC(c1ccc(-c2ccccc2)cc1)c1ncc(-c2cccc(F)c2)[nH]1", "note": "(stereo not given)", "Potency": "inconclusive: 25.1 µM [inhibitor, single point]"},
      {"smiles": "COc1cc(OC)c2c(-c3cccc(-c4ccc(C(C)=O)cc4)c3)cc(=O)oc2c1", "Potency": "inconclusive: 3.16 µM [inhibitor, partial curve, poor fit]"},
      {"smiles": "Cc1cc(Cl)ccc1NC(=O)CN1C(=O)NC2(CCCC2)C1=O", "activity, negative = inhibition": "inactive: 1.76%"},
      {"smiles": "CC(C)C1C(=O)N(Cc2cn(CC3CCCCC3)nn2)CCS(=O)(=O)N1Cc1ccc(-c2ccc(Cl)cc2)cc1", "note": "(stereo not given)", "Potency": "inconclusive: 14.1 µM [inhibitor, partial curve]"},
      {"smiles": "COC(=O)C(CCSC)NC(=O)C1CCN(c2ncnc3c2nc2n3CCCCC2)CC1", "note": "(stereo not given)", "activity, negative = inhibition": "inactive: -20.1%"},
      {"smiles": "CCNC(=S)Nc1ccc(N(c2ccccc2)C(C)C)cc1", "Potency": "inconclusive: 22.4 µM [inhibitor, single point]"},
      {"smiles": "CCCC[C@@H]1CNC(=S)N1CCCC", "Potency": "inconclusive: 12.6 µM [inhibitor, single point]"},
      {"smiles": "COc1cc2c(=O)n(Cc3ccccc3)c(=O)n(CC(=O)NCCc3ccccc3)c2cc1OC", "Potency": "inconclusive: 28.2 µM [inhibitor, partial curve, poor fit]"},
      {"smiles": "Fc1ccc(-n2ncc3c(NC4CCCCCC4)ncnc32)cc1", "activity, negative = inhibition": "inactive: -15.3%"},
      {"smiles": "CCOC(=O)/C=C/CN(C(=O)OC(C)(C)C)S(=O)(=O)N1CC=CC1", "Potency": "inconclusive: 35.5 µM [inhibitor, single point]"},
      {"smiles": "CC1=C(C(=O)N2CCCCCC2)CC(CC(=O)NC2CCCCC2)C(=O)N1Cc1ccccc1", "note": "(stereo not given)", "Potency": "inconclusive: 10 µM [inhibitor, partial curve, poor fit]"},
      {"smiles": "Cc1c(Cl)c([N+](=O)[O-])nn1Cc1ccc(C(=O)N/N=C\\c2cc(Cl)ccc2O)o1", "Potency": "inconclusive: 3.98 µM [inhibitor, partial curve, poor fit]"},
      {"smiles": "CCOc1ccc(NC(=O)C(CC)n2c(=O)c(-c3ccccc3NC(C)=O)nc3ccccc32)cc1", "note": "(stereo not given)", "activity, negative = inhibition": "inactive: -25.9%"},
      {"smiles": "COc1cc(C2(c3ccc(O)c(OC)c3)C(=O)N(C)c3ccc(Br)cc32)ccc1O", "Potency": "inconclusive: 35.5 µM [inhibitor, single point]"},
      {"smiles": "CC1(c2cccc(Br)c2)NC(=O)N(CC(=O)Nc2cccnc2Cl)C1=O", "note": "(stereo not given)", "activity, negative = inhibition": "inactive: 11.4%"},
      {"smiles": "COc1ccccc1OCCSc1nc(-c2ccc(C(C)(C)C)cc2)nc2cc(=O)[nH]n12", "Potency": "inconclusive: 31.6 µM [inhibitor, single point]"},
      {"smiles": "Cc1c(N(C)S(=O)(=O)c2cccc(C(=O)NC(C)C)c2)c(=O)n(-c2ccccc2)n1C", "activity, negative = inhibition": "inactive: -1.1%"},
      {"smiles": "COc1ccc(C(=O)NCc2csc(-c3cccs3)n2)cc1", "Potency": "inconclusive: 17.8 µM [inhibitor, partial curve, poor fit]"},
      {"smiles": "O=C(CCOc1ccccc1)N(Cc1cccnc1)c1nc2c(F)cc(F)cc2s1", "Potency": "inconclusive: 12.6 µM [inhibitor, partial curve]"},
      {"smiles": "CC(C)CN(C)C(=O)CCc1nnc(Cc2ccc(-c3ccccc3)cc2)o1", "Potency": "inconclusive: 12.6 µM [inhibitor, partial curve, poor fit]"},
      {"smiles": "O=C(Nc1cc(C(F)(F)F)ccc1N1CCCCC1)c1cccc([N+](=O)[O-])c1", "activity, negative = inhibition": "inactive: -8.51%"},
      {"smiles": "COc1ccccc1N1CCN(c2ccc(NC(=O)c3ccc(C)cc3)cc2C(=O)O)CC1", "activity, negative = inhibition": "inactive: -14.2%"},
      {"smiles": "CC(=O)C1C(=O)C=C(c2ccco2)CC1c1ccccc1", "note": "(stereo not given)", "activity, negative = inhibition": "inactive: -2.22%"},
      {"smiles": "CCN(CC)C(=O)CSc1nc2c(sc(=S)n2CC)c(=O)n1-c1ccccc1", "Potency": "inconclusive: 35.5 µM [inhibitor, single point]"},
      {"smiles": "CCc1ccc(/C=N/n2c(C3CCCCC3)n[nH]c2=S)cc1", "Potency": "inconclusive: 25.1 µM [inhibitor, single point]"},
      {"smiles": "COC(=O)N/N=C/c1cn(CCOc2ccccc2)c2ccccc12", "Potency": "inconclusive: 3.16 µM [inhibitor, full curve]"},
      {"smiles": "COc1ccccc1CNC(=O)c1cc2cc3ccc(Cl)cc3nc2o1", "Potency": "inconclusive: 35.5 µM [inhibitor, single point]"},
      {"smiles": "O=C(COC(=O)/C=C/c1ccco1)Nc1ccc(F)cc1Cl", "activity, negative = inhibition": "inactive: -4.22%"},
      {"smiles": "COc1cccc(N2CC(C(=O)Nc3nnc(SCC(=O)NCC4CCCO4)s3)CC2=O)c1", "note": "(stereo not given)", "Potency": "inconclusive: 35.5 µM [inhibitor, single point]"},
      {"smiles": "Cc1onc(-c2ccccc2Cl)c1C(=O)NC(=S)Nc1ccc(C(C)(C)C)cc1", "Potency": "inconclusive: 8.91 µM [inhibitor, partial curve]"},
      {"smiles": "COC(=O)N1C(=O)[C@@](c2ccc(OC)cc2)(C(C)C)N1C(=O)OC", "Potency": "inconclusive: 31.6 µM [inhibitor, single point]"},
      {"smiles": "COC(=O)c1ccc(NC(=O)CC2C(=O)N(c3cccc(OC)c3)C(=O)N2C(C)C)cc1", "note": "(stereo not given)", "activity, negative = inhibition": "inactive: 0.141%"},
      {"smiles": "CCOC(=O)CCc1c(C)nc2cc(-c3cc(OC)cc(OC)c3)[nH]n2c1=O", "activity, negative = inhibition": "inactive: -4.7%"},
      {"smiles": "Cc1ccc(NC(=O)CCN2CCN(C/C=C/c3ccccc3)CC2)cc1C", "activity, negative = inhibition": "inactive: 0%"},
      {"smiles": "CCOc1ccccc1C(=O)NC(C(=O)NCc1ccccc1OC)C(C)C", "note": "(stereo not given)", "activity, negative = inhibition": "inactive: -14.4%"}
    ]}
  ]
}
